This note sets out measurements from the supplement of paper PMC9446081.

Each structure is given as a SMILES string. Screen size: about 39,000 compounds; about 220 (0.56%) showed activity. The list shows a part of the results.
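Also: static incubation at 37 °C against the wild-type strain, values averaged over two biological replicates.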

In the experiment the test system is Escherichia coli K-12 BW25113. Put plainly: relative growth (OD600 normalised to plate interquartile mean) (fraction); higher = less growth inhibition, active = 0.2 or less. The following applies: 50 µM; LB; incubation time: overnight (16-24 h).
Turning to `C[C@@H]1CN([C@H](C)CO)C(=O)Cc2cc(NS(=O)(=O)c3cn(C)cn3)ccc2O[C@H]1CN(C)C`, the relative growth was inactive: 1.01.
In the case of `CC(C)NC(=O)Nc1ccc2c(c1)CC(=O)N([C@H](C)CO)C[C@@H](C)[C@@H](CN(C)Cc1ccc(Oc3ccccc3)cc1)O2`, the relative growth is inactive: 0.984.
Then `C[C@@H]1CCCCO[C@H](CN(C)Cc2ccc(C(=O)Nc3ccccc3N)cc2)[C@@H](C)CN([C@H](C)CO)C(=O)c2cc(NS(=O)(=O)c3ccc(F)cc3)ccc2O1`, with inactive: 1.01; and `O=C(CCCCCCNC(=O)c1ccc(NCc2cn(Cc3ccc(C(=O)c4ccc(Cn5cc(CNc6ccc(C(=O)NCCCCCCC(=O)NO)cc6)nn5)cc4)cc3)nn2)cc1)NO`, with inactive: 0.995; and `C=CCOC(=O)N(C)C[C@H]1OCCCC[C@H](C)Oc2ccc(NC(=O)Nc3ccccc3)cc2C(=O)N([C@@H](C)CO[Si](C)(C)C(C)(C)C)C[C@H]1C`, with inactive: 1.07.
For the compound `COc1ccc(CN(C)C[C@@H]2OCCCC[C@H](C)Oc3ccc(NS(=O)(=O)c4c(C)noc4C)cc3C(=O)N([C@H](C)CO)C[C@@H]2C)cc1`, the relative growth is inactive: 1.
For the compound `O=C(C[C@@H]1CC[C@@H]2[C@H](COC[C@H](O)CN2C(=O)c2cccnc2)O1)NCC1CC1`, the relative growth is inactive: 1.01.
Regarding `Cc1ccc(S(=O)(=O)N(C)C[C@H]2Oc3ncc(C#CCC(C)C)cc3C(=O)N([C@@H](C)CO)C[C@@H]2C)cc1`, the relative growth is inactive: 1.01.
In the case of `C[C@@H]1CN([C@@H](C)CO)C(=O)Cc2cc(NC(=O)Cn3cnnn3)ccc2O[C@H]1CN(C)Cc1ccncc1` it was inactive: 0.997; in that of `CN(C)C(=O)C[C@@H]1C=C[C@H](NC(=O)C2CCOCC2)[C@@H](CO)O1`, inactive: 0.96.
Consider `C[C@H]1CCCCO[C@H](CN(C)S(=O)(=O)c2cn(C)cn2)[C@@H](C)CN([C@@H](C)CO)C(=O)c2cc(NS(C)(=O)=O)ccc2O1`, for which the relative growth was inactive: 0.967.
In the case of `C[C@H](CO)N1C[C@H](C)[C@@H](CN(C)S(=O)(=O)c2cccs2)OCCCC[C@H](C)Oc2ccc(NS(=O)(=O)c3ccc(Cl)cc3)cc2C1=O` it was inactive: 1.1; in that of `O=C(C[C@H]1C[C@H]2c3cc(NS(=O)(=O)c4ccc(F)cc4)ccc3O[C@H]2[C@H](CO)O1)NCc1ccncc1`, inactive: 1; in that of `CCCNC(=O)N1C[C@H](O)COC[C@@H]2O[C@H](CC(=O)N3CCN(C)CC3)CC[C@H]21`, inactive: 0.993.
In the case of `C[C@@H]1CCCCO[C@@H](CN(C)S(=O)(=O)c2ccc(Cl)cc2)[C@H](C)CN([C@@H](C)CO)C(=O)c2cc(NC(=O)CCC(F)(F)F)ccc2O1` it was inactive: 1.
As for `Cc1onc(-c2c(Cl)cccc2Cl)c1C(=O)NC1C(=O)N2C1SC(C)(C)C2C(=O)[O-].[Na+]` (configuration not stated), the relative growth is inactive: 0.981.
With `CC(=O)N[C@H]1CC[C@H](CCNC(=O)C2CC2)O[C@@H]1CO`, the relative growth was inactive: 0.965.
For `O=C(O)C[C@H]1CSc2nccc(=O)n21`, the relative growth is inactive: 1.01.
Consider `COC(=O)[C@]12CCC(C)(C)C[C@H]1[C@H]1C(=O)C=C3[C@@]4(C)C=C(C#N)C(=O)C(C)(C)[C@@H]4CC[C@@]3(C)[C@]1(C)CC2`, for which the relative growth is inactive: 1.03.
As for `CC(NCCC(c1ccccc1)c1ccccc1)c1ccccc1.Cl` (configuration not stated), the relative growth was inactive: 1.11.
With `CC(C)NC(=O)Nc1ccc2c(c1)C(=O)N([C@@H](C)CO)C[C@H](C)[C@H](CN(C)Cc1ccccc1)OCCCC[C@@H](C)O2`, the relative growth is inactive: 0.983.
`Cc1noc(C)c1S(=O)(=O)Nc1ccc2c(c1)C(=O)N([C@H](C)CO)C[C@H](C)[C@@H](CN(C)Cc1ccccc1)OCCCC[C@@H](C)O2`: the relative growth was inactive: 0.986.
Then `Cc1noc(C)c1NC(=O)Nc1ccc2c(c1)C(=O)N([C@H](C)CO)C[C@H](C)[C@H](CN(C)C(=O)NC1CCCCC1)OCCCC[C@@H](C)O2`, with inactive: 1.01.
On to `CO[C@H](CN(C)S(=O)(=O)c1ccc(C)cc1)[C@H](C)CN([C@@H](C)CO)S(=O)(=O)c1cccc(Cl)c1`, for which the relative growth was inactive: 1.01.
In the case of `O=Cc1ccc(CO)o1` it was inactive: 0.988.
Consider `CO[C@H]1CN(C)C(=O)c2cc(NC(=O)C3CCOCC3)ccc2OC[C@@H](C)N(Cc2cccnc2)C[C@@H]1C`, for which the relative growth is inactive: 0.96.
As to `Cc1noc(C)c1S(=O)(=O)Nc1cccc2c1O[C@H](CN(C)S(=O)(=O)c1c(C)noc1C)[C@H](C)CN([C@@H](C)CO)C2=O`, the relative growth is inactive: 1.03.
As for `COc1ccccc1C#Cc1ccc2c(c1)O[C@H](CN(C)Cc1cncnc1)[C@@H](C)CN([C@@H](C)CO)S2(=O)=O`, the relative growth was inactive: 1.05.
`C[C@@H]1CCCCO[C@H](CN(C)C(=O)Nc2ccccc2)[C@H](C)CN([C@@H](C)CO)C(=O)c2cc(NC(=O)Nc3ccc4c(c3)OCO4)ccc2O1`: the relative growth was inactive: 1.02.
With `C[C@H](CO)N1C[C@H](C)[C@@H](CN(C)C(=O)Nc2ccc(F)cc2)OCCCC[C@H](C)Oc2ccc(NC(=O)Nc3ccccc3)cc2C1=O`, the relative growth is inactive: 1.01.
`Cc1noc(C)c1NC(=O)Nc1ccc2c(c1)C(=O)N([C@@H](C)CO)C[C@@H](C)[C@H](CN(C)Cc1ccc(Cl)c(Cl)c1)OCCCC[C@@H](C)O2`: the relative growth was inactive: 1.07.
`COc1ccc(S(=O)(=O)Nc2ccc3c(c2)C(=O)N([C@H](C)CO)C[C@H](C)[C@H](CN(C)S(=O)(=O)c2ccccc2)O3)cc1`: the relative growth is inactive: 1.02.
Consider `C[C@@H]1CN([C@@H](C)CO)C(=O)c2cccc(NC(=O)NC3CCCCC3)c2O[C@H]1CN(C)Cc1ccc(Oc2ccccc2)cc1`, for which the relative growth was inactive: 1.01.
With `COc1cc(/C=C/C(=O)c2c(NCCc3ccccc3)sc(-c3ccc(O)c(OC)c3)cc2=O)ccc1O`, the relative growth is inactive: 1.
With `COc1ccc(NC(=O)N(C)C[C@@H]2Oc3ccc(NC(=O)CCN4CCOCC4)cc3C(=O)N([C@@H](C)CO)C[C@@H]2C)cc1`, the relative growth was inactive: 0.984.
For the compound `COc1ccc(NC(=O)Nc2ccc3c(c2)C(=O)N([C@H](C)CO)C[C@@H](C)[C@H](CN(C)CC2CC2)OCCCC[C@@H](C)O3)cc1`, the relative growth was inactive: 0.979.
Then `C[C@H](CO)N1C[C@H](C)[C@@H](CN(C)S(C)(=O)=O)Oc2ccc(NC(=O)CCN3CCOCC3)cc2CC1=O`, with inactive: 0.942; and `C[C@@H]1CN([C@@H](C)CO)C(=O)c2cccc(NC(=O)Nc3ccc4c(c3)OCO4)c2O[C@H]1CN(C)Cc1ccc(C(F)(F)F)cc1`, with inactive: 0.87.
On to `COC(=O)CCCCCCC(=O)Nc1ccc([C@H]2O[C@@H](CN(C)Cc3ccccc3)C[C@H](c3ccccc3)O2)cc1`, for which the relative growth is inactive: 0.996.
On to `C[C@@H]1CN([C@H](C)CO)C(=O)c2cc(NC(=O)Nc3cccc4ccccc34)ccc2O[C@@H](C)CCCCO[C@@H]1CN(C)CC1CCCCC1`, for which the relative growth is inactive: 1.01.
Take `C[C@@H]1CCCCO[C@@H](CN(C)C(=O)CCC(F)(F)F)[C@@H](C)CN([C@H](C)CO)C(=O)c2cc(NS(=O)(=O)c3ccccc3)ccc2O1`: the relative growth was inactive: 0.997.
Consider `C[C@@H]1CN([C@@H](C)CO)C(=O)c2cc(NC(=O)Nc3ccc4c(c3)OCO4)ccc2O[C@H]1CN(C)Cc1ccc(Cl)c(Cl)c1`, for which the relative growth was inactive: 1.04.
Then `C[C@H]1CN([C@@H](C)CO)C(=O)CCCn2nncc2CO[C@H]1CN(C)C(=O)c1cc(-c2ccccc2)on1`, with inactive: 0.993; and `O=C(C[C@H]1CC[C@H](NS(=O)(=O)c2ccc(F)cc2)[C@@H](CO)O1)NCc1ccc(Cl)c(Cl)c1`, with inactive: 1; and `C[C@H]1CN([C@@H](C)CO)S(=O)(=O)c2ccc(C#CCN(C)C)cc2O[C@@H]1CN(C)S(C)(=O)=O`, with inactive: 0.994.
Then `Cc1ccc(S(=O)(=O)Nc2ccc3c(c2)CC(=O)N([C@H](C)CO)C[C@H](C)[C@H](CN(C)S(=O)(=O)c2c(C)noc2C)O3)cc1`, with inactive: 0.99; and `COc1ccc(-c2cnc3c(c2)C(=O)N([C@H](C)CO)C[C@@H](C)[C@H](CN(C)C(=O)Cc2cccnc2)O3)cc1`, with inactive: 0.994; and `C[C@@H]1CN([C@H](C)CO)C(=O)Cc2cc(NC(=O)Nc3ccc(F)cc3)ccc2O[C@H]1CN(C)C(=O)Nc1cccc2ccccc12`, with inactive: 1.02.
In the case of `C[C@H]1CN([C@@H](C)CO)S(=O)(=O)c2ccc(-c3cncnc3)cc2O[C@H]1CN(C)C(=O)NC1CCCC1` it was inactive: 1; in that of `Cc1ccc(S(=O)(=O)N(C)C[C@@H]2OCCCC[C@H](C)Oc3ccc(NC(=O)Nc4ccc5c(c4)OCO5)cc3C(=O)N([C@@H](C)CO)C[C@H]2C)cc1`, inactive: 1.03.
On to `CN(C)CC(=O)N1[C@@H]2Cn3c(ccc(-c4ccccc4)c3=O)[C@H]1[C@@H](C(=O)N1CCOCC1)[C@@H]2CO`, for which the relative growth is inactive: 0.933.
Consider `C[C@@H]1CN([C@H](C)CO)C(=O)c2cccc(NC(=O)Nc3cccc4ccccc34)c2O[C@H]1CN(C)C(=O)Nc1ccc(C(F)(F)F)cc1`, for which the relative growth is inactive: 0.865.
Consider `COc1ccc(CN(C)C[C@H]2OCCCC[C@H](C)Oc3ccc(NC(=O)Nc4ccc(C(F)(F)F)cc4)cc3C(=O)N([C@H](C)CO)C[C@@H]2C)cc1`, for which the relative growth was inactive: 0.995.
For the compound `C[C@@H]1CN([C@H](C)CO)S(=O)(=O)c2ccc(-c3cccnc3)cc2O[C@@H]1CN(C)C(=O)c1ccc2c(c1)OCO2`, the relative growth is inactive: 1.01.
Consider `Cc1noc(C)c1S(=O)(=O)Nc1ccc2c(c1)CC(=O)N([C@H](C)CO)C[C@H](C)[C@@H](CN(C)CC1CC1)O2`, for which the relative growth is inactive: 1.01.
In the case of `Cn1cnc(S(=O)(=O)N2C[C@H](O)COC[C@H]3O[C@H](CC(=O)NCc4cccc(F)c4)CC[C@@H]32)c1` it was inactive: 0.998; in that of `Cc1cn([C@@H]2O[C@H](CO)[C@@H](O)[C@H]2O)c(=O)nc1N`, inactive: 1.
